# The supplement of paper PMC10338343
# ± gives the standard deviation. The entries are a selection whose mix differs from that of the whole data set.
# Tested on: MIWI (PIWIL1) piRISC loaded with L1MC piRNA (30 nt)
# Experiment: pre-steady-state target cleavage rate (min^-1); MIWI and MILI are mouse PIWI proteins and EfPiwi is from a freshwater sponge; tags in brackets are library labels; higher = faster piRNA-guided slicing of the target
# Details: guide: L1MC piRNA 5'p-UAACUAAAUACUAUGCAAGCUGUAGGUCCU
# Method in brief: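 The pre-steady-state cleavage rate was calculated from a burst-and-steady-state fit. Data came from Cleave-'n-Seq, in which […] transcribed, DNA-blocked target RNA library was mixed with 1 nM active affinity-purified piRISC carrying one synthetic guide, with or without 500 nM GTSF1 partner protein, in HEPES–potassium acetate buffer at 33 °C for 0–8 or 0–960 min. Uncleaved targets were sequenced and normalised to depth and to weakly complementary targets, three trials were pooled, and k3 was capped at 0.0001 min^-1.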
# [1] = auxiliary factor: 500 nM mouse GTSF1
# [2] = auxiliary factor: none (no GTSF1)
# 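Note: 1 nM active piRISC with 0.1 nM target library at 33 °C single turnover.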
sequence,measurement,setting,value
UCGUGGUACAGCUUGCAUAGUAUUUAGUUA,pre-steady-state target cleavage rate,[1],1.23 ± 0.038
same,pre-steady-state target cleavage rate,[2],0.0818 ± 0.014
UCGACCUACAGCUUGCAUACUAAUUAGUUA,pre-steady-state target cleavage rate,[1],0.208 ± 0.018
same,pre-steady-state target cleavage rate,[2],0.00836 ± 0.0022
UCCACCUACAGCUUGCAUAGUAUUUAGCUUA,pre-steady-state target cleavage rate,[1],0.272 ± 0.041
same,pre-steady-state target cleavage rate,[2],0.0142 ± 0.004
UCCACCUACAGCUUGCAUAGUAUUAUAGUUA,pre-steady-state target cleavage rate,[1],0.699 ± 0.047
same,pre-steady-state target cleavage rate,[2],0.0142 ± 0.0026
UGGACCUACAGCUUGCUUAGUAUUUACAAA,pre-steady-state target cleavage rate,[1],0.195 ± 0.035
same,pre-steady-state target cleavage rate,[2],0.00309 ± 0.0018
UCCUGGAUCAGCUAGCAUAGUAUUAAGUUA,pre-steady-state target cleavage rate,[1],0.51 ± 0.045
same,pre-steady-state target cleavage rate,[2],0.00395 ± 0.0028
AGCACCUACUGCUUGCAUAGUAUUUAGUUA,pre-steady-state target cleavage rate,[1],0.881 ± 0.076
same,pre-steady-state target cleavage rate,[2],0.0651 ± 0.013
UCGACCUGACAGCUUGCAUAGUAUUUAGUUA,pre-steady-state target cleavage rate,[1],1.25 ± 0.057
same,pre-steady-state target cleavage rate,[2],0.0632 ± 0.011
UCCUGGAUCAGCUUGCAUAGUUAUUUAGUUA,pre-steady-state target cleavage rate,[1],0.0152 ± 0.0049
same,pre-steady-state target cleavage rate,[2],0.00627 ± 0.0027
AGGACCUACAGCUUGCAUAGUCAUUUAGUUA,pre-steady-state target cleavage rate,[1],0.138 ± 0.037
same,pre-steady-state target cleavage rate,[2],0.00487 ± 0.0028
AGGACCUACAGCUUGCAUAGAAUUUACUUA,pre-steady-state target cleavage rate,[1],0.398 ± 0.051
same,pre-steady-state target cleavage rate,[2],0.0283 ± 0.0085
UCCUGGAUCUGCUUGCAUAGUAUAUAGUUA,pre-steady-state target cleavage rate,[1],0.267 ± 0.03
same,pre-steady-state target cleavage rate,[2],0.0131 ± 0.0052
UGGACCAACAGCUUGCAUACUAUUUAGUUA,pre-steady-state target cleavage rate,[1],0.419 ± 0.017
same,pre-steady-state target cleavage rate,[2],0.0377 ± 0.0075
UGGACCUACAGCUUGCAUAGUAUUUAGUCUA,pre-steady-state target cleavage rate,[1],0.0666 ± 0.01
same,pre-steady-state target cleavage rate,[2],0.0139 ± 0.0033
UCGACCUAGAGCUUGCAUAGUAUUUAGAUA,pre-steady-state target cleavage rate,[1],0.46 ± 0.051
same,pre-steady-state target cleavage rate,[2],0.0214 ± 0.0059
UCGACCAACAGCUUGCAUAGUAAUUAGUUA,pre-steady-state target cleavage rate,[1],0.972 ± 0.041
same,pre-steady-state target cleavage rate,[2],0.0305 ± 0.0074
UCCUCCUACAGCUCGCAUAGUAUUUAGUUA,pre-steady-state target cleavage rate,[1],1.31 ± 0.051
same,pre-steady-state target cleavage rate,[2],0.0488 ± 0.0093
AGGUCCUACAGCUUGCUUAGUAUUUAGUUA,pre-steady-state target cleavage rate,[1],1.54 ± 0.069
same,pre-steady-state target cleavage rate,[2],0.0542 ± 0.011
UCCACCUACAGCUUGCAUAGUUUUUUGUUA,pre-steady-state target cleavage rate,[1],0.225 ± 0.026
same,pre-steady-state target cleavage rate,[2],0.0197 ± 0.004
UCCACCAACAGCUUGCAUAGAAUUUAGUUA,pre-steady-state target cleavage rate,[1],0.386 ± 0.038
same,pre-steady-state target cleavage rate,[2],0.0214 ± 0.0056
